PubChem BioAssay AID624417 (National Center for Advancing Translational Sciences (NCATS), 2012)
In all, about 410,000 compounds went through this assay and about 6,400 (1.6%) were called active. The inconclusive results got no clear call from the source; some entries with a clear call stand among them for comparison. Calls follow the shape of the dose curve; as a rule, active = well fitted inhibition curve with a large enough effect; inconclusive = small, poorly fitted or top-dose-only effect; inactive = no such curve, though single readings can be large or run the other way. Potencies beside an inconclusive call are fits to weak or partial responses and may not hold up.

target: Glucagon-like peptide 1 receptor (Homo sapiens) (UniProt P43220); assay: qHTS of GLP-1 Receptor Inverse Agonists (Inhibition Mode); details: HEK293 GLP-1R CRE-luciferase, luminescence, 24 h; Potency: GLP-1R form is constitutively active unless noted; activity change, negative = inhibition: at 38.3 µM (top of the series) unless noted; also: nearly all actives have a fitted effect of over 55% in size
Procedure, shortened: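 qHTS in 1536-well format: reporter HEK293 cells expressing constitutive GLP-1R activity in DMEM + 10% Nu serum, 24 hr with compounds at 37 deg C, luminescence read after 12 min with detection reagent.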
% is scaled to controls: 0 for no effect and ±100 for the full control effect; potency is read from the fitted curve at half-maximal effect; tags tell the direction and shape of the fitted curve.

Sequence of UniProt P43220 (P43220 whole entry, looked up): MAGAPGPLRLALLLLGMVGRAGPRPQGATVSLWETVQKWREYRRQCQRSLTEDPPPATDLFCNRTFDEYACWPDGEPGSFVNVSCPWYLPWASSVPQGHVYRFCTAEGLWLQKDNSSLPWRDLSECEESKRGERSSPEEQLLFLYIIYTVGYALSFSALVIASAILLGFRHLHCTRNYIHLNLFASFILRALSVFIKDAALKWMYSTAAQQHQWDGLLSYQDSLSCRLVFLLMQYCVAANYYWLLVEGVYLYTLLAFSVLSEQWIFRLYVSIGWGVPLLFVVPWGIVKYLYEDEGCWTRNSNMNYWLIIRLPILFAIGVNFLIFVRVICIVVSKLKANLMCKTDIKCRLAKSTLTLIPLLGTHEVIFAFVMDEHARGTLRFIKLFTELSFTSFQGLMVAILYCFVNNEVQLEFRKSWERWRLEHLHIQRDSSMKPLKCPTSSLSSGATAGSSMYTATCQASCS

Structure (SMILES)	Potency	activity change, negative = inhibition
COc1ccccc1-n1c(-c2cccs2)nc2ccccc2c1=O	inconclusive: 28.2 µM [inhibitor, single point]	
Cc1ccc2nc(N3CCN(C)CC3)[nH]c2c1	inactive	
COc1ccc(-c2nc(CN3C(=O)CN=C(c4ccccc4)c4cc(Cl)ccc43)c(C)o2)cc1	inconclusive: 11.2 µM [inhibitor, single point]	
COc1ccc(C(=O)Nc2sc3c(c2C(=O)O)CC(C)(C)OC3)cc1	inconclusive: 1 µM [inhibitor, full curve, poor fit]	
CCCCn1c(O)c(/C(CC)=N/N2CCCCC2c2cccnc2)c(=O)[nH]c1=S (centres undefined)	inconclusive: 28.2 µM [inhibitor, single point]	
CCOC(=O)c1cc(CC)sc1/N=C/C1C(=O)NC(=S)NC1=O	inactive	
Nc1c(C(=O)NCCc2ccccc2)c2nc3ccccc3nc2n1CCN1CCOCC1	inactive	
O=P(Nc1cccc(Cl)c1)(Oc1ccccc1)Oc1ccccc1	active: 8.91 µM [setting not given]	
CC(Cc1ccccc1)NCC(=O)Nc1cc(N(C)C)nc2ccccc12 (centres undefined)	inconclusive: 11.2 µM [inhibitor, partial curve, poor fit]	
CCOP(=O)(C#Cc1ccccc1)C(O)c1ccc(Br)cc1 (centres undefined)	inconclusive: 28.2 µM [inhibitor, single point]	
Cc1nc(-c2cccc(NC(=O)c3ccc(Cl)c(S(=O)(=O)N4CCCC4)c3)c2)cs1	inconclusive: 28.2 µM [inhibitor, single point]	
CCC(=NC1CC1)c1c(O)n(C2CCCCC2)c(=O)[nH]c1=O	inconclusive: 11.2 µM [inhibitor, partial curve]	
Cc1ccc(-n2c(C)nc3ccccc3c2=O)c(C)c1	inactive	
Nc1ccccc1C(=O)OCC(=O)N1CCc2ccccc21	inactive	
O=[N+]([O-])c1ccccc1-c1cc(-c2ccccc2)cc(-c2ccccc2)[n+]1Cc1ccccc1Cl	inconclusive: 5.01 µM [inhibitor, full curve, poor fit]	
CCCCCn1c(N)c(C(=O)NCc2cccs2)c2nc3ccccc3nc21	inconclusive: 1.41 µM [inhibitor, full curve, poor fit]	
CCCCOP(=O)(c1ccc(N(C)C)cc1)C(O)c1c(Cl)cccc1Cl (centres undefined)	inconclusive: 12.6 µM [inhibitor, single point]	
CC(C)COP(=O)(c1ccc(N(C)C)cc1)C(Nc1ccccc1)c1ccccc1 (centres undefined)	inconclusive: 11.2 µM [inhibitor, single point]	
COc1ccc(OC)c(C(Nc2ccccc2)P(=O)(OC(C)C)OC(C)C)c1 (centres undefined)	inconclusive: 11.2 µM [inhibitor, partial curve, poor fit]	
CC(C(=O)Nc1ccc(Br)cc1C(=O)c1ccccc1)N1CCOCC1 (centres undefined)	inconclusive: 7.94 µM [inhibitor, partial curve, poor fit]	

Structure (SMILES)	Potency	activity change, negative = inhibition
CC(C)(C)C(=O)O[C@H]1CC[C@@]2(C)C(=CC(=O)C3C2CC[C@]2(C)C(=O)[C@H](O)CC32)C1 (some centres undefined)	inconclusive: 11.2 µM [inhibitor, single point]	
Oc1ccc(-[n+]2c(-c3ccccc3)cc(-c3ccccc3)cc2-c2ccccc2)cc1	inconclusive: 5.01 µM [inhibitor, partial curve]	
O=c1[nH]c(=S)[nH]c(O)c1N=Nc1cc2c(cc1[N+](=O)[O-])OCO2	inactive	
Cc1ccc(-n2nc(C)cc2NC(=O)COc2cc(C)cc3oc(=O)c4c(c23)CCC4)cc1	inactive	
O=c1[nH]c2ccccc2n1C1CCN(C(c2ccnc3ccccc23)c2nnnn2-c2ccc3c(c2)OCCO3)CC1 (centres undefined)	inconclusive: 2.82 µM [inhibitor, partial curve, poor fit]	
COC(=O)C1=C(c2cc3ccccc3o2)C[C@@H]2CC[C@H]1N2C(=O)N1CCC(C)CC1	inconclusive: 11.2 µM [inhibitor, partial curve, poor fit]	
COCc1ccc(CN2CCCC(C(=O)c3sccc3C)C2)o1 (centres undefined)	inconclusive: 12.6 µM [inhibitor, single point]	
COc1cccc(-n2cnc3scc(-c4cccs4)c3c2=O)c1	inconclusive: 28.2 µM [inhibitor, single point]	
Cc1nc2ccc(Cl)cc2c(=O)n1-c1ccccc1Cl	inconclusive: 28.2 µM [inhibitor, single point]	
COCCCn1c(N)c(C(=O)Nc2ccccc2)c2nc3ccccc3nc21	inconclusive: 10 µM [inhibitor, partial curve, poor fit]	
CC1=C(O)C(=O)C=C2C1=CC=C1C2(C)CCC2(C)C3CC(C)(C(=O)O)CCC3(C)CCC12C (centres undefined)	inconclusive: 1 µM [inhibitor, full curve, poor fit]	
CCOc1cc2c(cc1OCC)-n1cccc1C(c1cc(C)c(OC)cc1C)NC2 (centres undefined)	inconclusive: 22.4 µM [inhibitor, partial curve, poor fit]	
Cc1ccsc1C(=O)C1CCCN(Cc2cc3ccccc3o2)C1 (centres undefined)	inconclusive: 28.2 µM [inhibitor, single point]	
CC1OC(OC2C=C3CCC4C(CCC5(C)C(c6ccc(=O)oc6)CCC45O)C3(C)CC2)C(O)C(OC2OC(CO)C(O)C(O)C2O)C1O (centres undefined)	inactive	
Cc1cc(S(=O)(=O)NCC(C)C)ccc1OCC(=O)N1CCN(Cc2ccccc2)CC1	inconclusive: 28.2 µM [inhibitor, partial curve, poor fit]	
Clc1cccc(CNCCc2c[nH]c3ccccc23)c1		inconclusive: -83.1% [inhibitor] [at 38.3 µM, GLP-1R form is constitutively active]
CC1(C)CC(=O)C2=C(C1)NC(=O)C21C(C(=O)OC(C)(C)C)=C(N)Oc2ccc(Br)cc21 (centres undefined)	inconclusive: 0.447 µM [inhibitor, full curve, poor fit]	
Cc1cccc(OCCCn2c(=O)oc3ccccc32)c1	inconclusive: 28.2 µM [inhibitor, single point]	
Fc1cccc(C2NCc3ccccc3-n3cccc32)c1 (centres undefined)	inconclusive: 7.08 µM [inhibitor, partial curve, poor fit]	
O=C(C(=O)N1CCOCC1)c1cn(CCCOc2ccccc2)c2ccccc12	inconclusive: 7.94 µM [inhibitor, partial curve, poor fit]	

Structure (SMILES)	Potency	activity change, negative = inhibition
CCOC(=O)C(O)(c1ccc(NC(=S)NC(=O)c2ccc(Cl)cc2Cl)cc1)C(F)(F)F (centres undefined)	inconclusive: 22.4 µM [inhibitor, single point]	
O=[N+]([O-])c1ccc2nc(N3CCNCC3)ccc2c1	inconclusive: 11.2 µM [inhibitor, partial curve, poor fit]	
Cc1ccc(NC(=O)CSc2nc(-c3ccco3)cc(C(F)(F)F)n2)c(C)c1	inconclusive: 0.316 µM [inhibitor, full curve, poor fit]	
Cc1cc(OCC(=O)N2CCN(CC(=O)N3CCOCC3)CC2)c(C(C)C)cc1Cl	inconclusive: 28.2 µM [inhibitor, single point]	
CC(C)n1c(O)c(C2c3cc(Cl)ccc3Oc3[nH]c(=O)n(C(C)C)c(=O)c32)c(=O)[nH]c1=O (centres undefined)	inconclusive: 10 µM [inhibitor, partial curve, poor fit]	
Cc1ccccc1OCCCn1cc(C(=O)C(=O)N2CCOCC2)c2ccccc21	inconclusive: 11.2 µM [inhibitor, single point]	
CC(C)=CCc1c(O)cc2c(c1O)C(=O)CC(c1ccc(O)cc1)O2 (centres undefined)	active: 12.6 µM [setting not given]	
O=C(CCN1CCN(CCO)CC1)N1c2ccccc2Sc2ccc(C(F)(F)F)cc21	inactive	
CN(CCc1ccccc1)C(=O)c1ccc(NC(=O)Cc2cccc([N+](=O)[O-])c2)cc1	inconclusive: 28.2 µM [inhibitor, single point]	
CN(C)C(Cc1ccccc1)C(=O)c1ccc(-c2ccccc2)cc1 (centres undefined)	inconclusive: 11.2 µM [inhibitor, single point]	
CCc1ccc(N2C(=O)NC(=O)/C(=C\C=C\c3ccco3)C2=O)cc1	inconclusive: 25.1 µM [inhibitor, single point]	
CC[C@H]1OC(=O)C[C@@H](O)[C@H](C)[C@@H](O[C@@H]2O[C@H](C)[C@@H](O[C@H]3C[C@@](C)(O)[C@@H](O)[C@H](C)O3)[C@H](N(C)C)[C@H]2O)[C@@H](CC=O)C[C@@H](C)C(=O)/C=C/C(C)=C/[C@@H]1CO[C@@H]1O[C@H](C)[C@@H](O)[C@@H](OC)[C@H]1OC	inactive	
CC(C)COC(=O)c1ccccc1C(=O)OCC(C)C	inconclusive: 28.2 µM [inhibitor, single point]	
COc1ccc(C/C(=N\OC(C)=O)c2ccc(OC)cc2)cc1	inconclusive: 11.2 µM [inhibitor, single point]	
Cc1cc(O)c2c(c1)OC(C)(C)C1=C2CC(C)CC1 (centres undefined)	inconclusive: 11.2 µM [inhibitor, partial curve, poor fit]	
CN1CCN(CC(=O)Nc2ccc([N+](=O)[O-])cc2C(=O)c2ccccc2)CC1	inconclusive: 10 µM [inhibitor, partial curve, poor fit]	
C=CCOc1ccc(CC2C(=O)N(C)C(=O)N(C)C2=O)cc1	inconclusive: 8.91 µM [inhibitor, partial curve]	
CN(CCc1ccccc1)Cc1ccccc1[N+](=O)[O-]	inconclusive: 7.94 µM [inhibitor, partial curve]	
C/C(CC(c1ccccc1)c1c(O)c2ccccc2oc1=O)=N\Nc1ccc([N+](=O)[O-])cc1[N+](=O)[O-] (centres undefined)	inconclusive: 28.2 µM [inhibitor, single point]	
